Laboratory results from PMC5836133.
This is one part of the list. At the low end of the ranking the order means little.

test system: T1, GST-NbGlk1(82-244); assay: protein-binding microarray; conditions: NbGlk1 is a Golden2-like transcription factor of Nicotiana benthamiana; high values mean tight binding; most listed sequences are background and not binding sites; double strand, one strand shown;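 further: rank-based score ranging −0.5 to +0.5 with E above 0.45 taken as significant binding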
T1 sequence: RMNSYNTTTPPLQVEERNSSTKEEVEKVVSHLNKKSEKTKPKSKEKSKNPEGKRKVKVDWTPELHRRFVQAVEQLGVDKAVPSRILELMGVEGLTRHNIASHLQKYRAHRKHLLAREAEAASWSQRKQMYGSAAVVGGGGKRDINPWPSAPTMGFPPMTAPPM

Question: With AAGTGCGC as the sequence, how does the binding signal read?
Answer: Its binding signal is 0.0324 E-score.

Question: For AGAATAAG, which binding signal is on record?
Answer: Its binding signal is -0.0508 E-score.

Question: How did the binding signal turn out when AAGGACGT was run?
Answer: Its binding signal is -0.183 E-score.

Question: Which binding signal does the source give for ATTCTTCA here?
Answer: Its binding signal is 0.324 E-score.

Question: For CACGTGAA, which binding signal is on record?
Answer: Its binding signal is 0.00106 E-score.

Question: ACAGCACA was tested. Which binding signal did it give?
Answer: The binding signal was -0.233 E-score.

Question: With ATACGGTA as the sequence, how does the binding signal read?
Answer: Its binding signal is 0.197 E-score.

Question: With AGGCGCGC as the sequence, how does the binding signal read?
Answer: The binding signal was -0.0749 E-score.

Question: For ACGATTAG, which binding signal is on record?
Answer: Its binding signal is -0.00815 E-score.

Question: How did the binding signal turn out when ACGAACAA was run?
Answer: The binding signal was 0.0782 E-score.

Question: With AACGACAT as the sequence, how does the binding signal read?
Answer: The binding signal was -0.0321 E-score.

Question: Which binding signal does the source give for ACCCAAAA here?
Answer: The binding signal was 0.0753 E-score.

Question: How did the binding signal turn out when ATGTAAAA was run?
Answer: Its binding signal is 0.129 E-score.

Question: ACGTCCTA was tested. Which binding signal did it give?
Answer: Its binding signal is 0.00748 E-score.

Question: With ACCAGCTA as the sequence, how does the binding signal read?
Answer: The binding signal was -0.125 E-score.

Question: Which binding signal does the source give for CACACAAG here?
Answer: Its binding signal is -0.0263 E-score.

Question: For ACAGGATG, which binding signal is on record?
Answer: The binding signal was -0.18 E-score.

Question: How did the binding signal turn out when ATATACGA was run?
Answer: Its binding signal is 0.236 E-score.

Question: Which binding signal does the source give for AGGAGGCG here?
Answer: The binding signal was -0.259 E-score.

Question: Which binding signal does the source give for ATCTTGTG here?
Answer: The binding signal was 0.318 E-score.

Question: For AAGTAGCG, which binding signal is on record?
Answer: The binding signal was -0.0266 E-score.

Question: How did the binding signal turn out when CACGTAAA was run?
Answer: Its binding signal is -0.0233 E-score.

Question: Which binding signal does the source give for AGGCGATG here?
Answer: The binding signal was -0.149 E-score.

Question: ATGGCTGC was tested. Which binding signal did it give?
Answer: The binding signal was -0.188 E-score.

Question: ATCCAAAG was tested. Which binding signal did it give?
Answer: Its binding signal is 0.246 E-score.

Question: Which binding signal does the source give for ATGGACAC here?
Answer: Its binding signal is -0.0337 E-score.

Question: ACCAAGGG was tested. Which binding signal did it give?
Answer: Its binding signal is -0.222 E-score.

Question: ATGACACG was tested. Which binding signal did it give?
Answer: The binding signal was -0.0789 E-score.

Question: How did the binding signal turn out when AGCTTTTC was run?
Answer: Its binding signal is -0.0883 E-score.

Question: For AAAGTCGT, which binding signal is on record?
Answer: Its binding signal is 0.0123 E-score.

Question: With AGGATAAT as the sequence, how does the binding signal read?
Answer: The binding signal was 0.238 E-score.

Question: With AAAGTTAG as the sequence, how does the binding signal read?
Answer: Its binding signal is -0.0475 E-score.

Question: ACAAATCC was tested. Which binding signal did it give?
Answer: The binding signal was 0.337 E-score.

Question: With CACATTCC as the sequence, how does the binding signal read?
Answer: Its binding signal is 0.162 E-score.

Question: For ATCGCCTG, which binding signal is on record?
Answer: Its binding signal is 0.149 E-score.

Question: AGACAAGA was tested. Which binding signal did it give?
Answer: Its binding signal is 0.0454 E-score.

Question: With AGCCGGCG as the sequence, how does the binding signal read?
Answer: Its binding signal is -0.285 E-score.

Question: For AAAACGTG, which binding signal is on record?
Answer: The binding signal was -0.144 E-score.

Question: How did the binding signal turn out when ACCCTACT was run?
Answer: The binding signal was -0.0313 E-score.

Question: For ACACTTCC, which binding signal is on record?
Answer: The binding signal was -0.00371 E-score.

Question: With AACTAGTA as the sequence, how does the binding signal read?
Answer: The binding signal was -0.0582 E-score.

Question: With AGGCGGGC as the sequence, how does the binding signal read?
Answer: Its binding signal is -0.252 E-score.

Question: How did the binding signal turn out when CAAACCCA was run?
Answer: Its binding signal is -0.126 E-score.

Question: CACAGTCC was tested. Which binding signal did it give?
Answer: Its binding signal is -0.16 E-score.

Question: For AAAGCGAG, which binding signal is on record?
Answer: Its binding signal is -0.0323 E-score.

Question: With AATCGAAC as the sequence, how does the binding signal read?
Answer: The binding signal was 0.213 E-score.

Question: For ACGCTTCA, which binding signal is on record?
Answer: Its binding signal is -0.116 E-score.

Question: For AATGGACA, which binding signal is on record?
Answer: The binding signal was -0.0091 E-score.

Question: ACATCCAC was tested. Which binding signal did it give?
Answer: Its binding signal is 0.0579 E-score.

Question: How did the binding signal turn out when AGAATTGG was run?
Answer: The binding signal was -0.0169 E-score.

Question: CACCCAGA was tested. Which binding signal did it give?
Answer: The binding signal was -0.0163 E-score.

Question: For AAAGAGCT, which binding signal is on record?
Answer: The binding signal was -0.241 E-score.

Question: With AATATAAA as the sequence, how does the binding signal read?
Answer: Its binding signal is 0.254 E-score.

Question: For CAAACACA, which binding signal is on record?
Answer: Its binding signal is 0.0306 E-score.

Question: AGTGTCGC was tested. Which binding signal did it give?
Answer: The binding signal was -0.0439 E-score.

Question: ACTTTCTC was tested. Which binding signal did it give?
Answer: The binding signal was -0.0359 E-score.

Question: Which binding signal does the source give for ACGGTTTC here?
Answer: The binding signal was -0.173 E-score.

Question: With CACCGGCA as the sequence, how does the binding signal read?
Answer: The binding signal was -0.261 E-score.

Question: ACTGATTG was tested. Which binding signal did it give?
Answer: Its binding signal is 0.207 E-score.

Question: How did the binding signal turn out when CAGAGTAC was run?
Answer: Its binding signal is -0.264 E-score.

Question: For ACTGCATC, which binding signal is on record?
Answer: The binding signal was -0.0476 E-score.

Question: Which binding signal does the source give for ATGTTGCA here?
Answer: Its binding signal is 0.0286 E-score.

Question: How did the binding signal turn out when AGCTAAAC was run?
Answer: Its binding signal is -0.114 E-score.

Question: With ACATCGAA as the sequence, how does the binding signal read?
Answer: Its binding signal is 0.0681 E-score.

Question: How did the binding signal turn out when ACTCCTCA was run?
Answer: Its binding signal is -0.235 E-score.

Question: With ACAATGAG as the sequence, how does the binding signal read?
Answer: The binding signal was -0.0284 E-score.

Question: With CACCGCGA as the sequence, how does the binding signal read?
Answer: Its binding signal is 0.00808 E-score.

Question: With ATACCCCA as the sequence, how does the binding signal read?
Answer: Its binding signal is 0.0124 E-score.

Question: Which binding signal does the source give for CACTTCTG here?
Answer: Its binding signal is -0.066 E-score.

Question: How did the binding signal turn out when AGAAGAAG was run?
Answer: Its binding signal is -0.084 E-score.

Question: ATTCTATC was tested. Which binding signal did it give?
Answer: Its binding signal is 0.261 E-score.

Question: With AGTAGACA as the sequence, how does the binding signal read?
Answer: The binding signal was -0.0649 E-score.

Question: Which binding signal does the source give for AACTCCCT here?
Answer: Its binding signal is -0.215 E-score.

Question: AAAGGGGG was tested. Which binding signal did it give?
Answer: The binding signal was -0.171 E-score.

Question: For AGGATTGA, which binding signal is on record?
Answer: Its binding signal is -0.0796 E-score.

Question: Which binding signal does the source give for ACGGTTAC here?
Answer: The binding signal was 0.00366 E-score.

Question: AACATTAT was tested. Which binding signal did it give?
Answer: The binding signal was 0.0473 E-score.

Question: AACAGTCC was tested. Which binding signal did it give?
Answer: The binding signal was -0.12 E-score.

Question: How did the binding signal turn out when AAGACCCT was run?
Answer: The binding signal was -0.264 E-score.

Question: For AGATATTC, which binding signal is on record?
Answer: Its binding signal is 0.451 E-score.

Question: With AAGAACCT as the sequence, how does the binding signal read?
Answer: The binding signal was -0.154 E-score.

Question: For AGAAGGTA, which binding signal is on record?
Answer: The binding signal was -0.0371 E-score.

Question: Which binding signal does the source give for ACCCATTA here?
Answer: The binding signal was 0.0818 E-score.

Question: How did the binding signal turn out when AGACGAAA was run?
Answer: Its binding signal is 0.03 E-score.

Question: For ATTGCAAC, which binding signal is on record?
Answer: Its binding signal is 0.0997 E-score.

Question: ATACTACG was tested. Which binding signal did it give?
Answer: Its binding signal is 0.0656 E-score.
